From the RNAGym collection of RNA variant scans (doi:10.1093/nar/gkz1192)
Read counts are not given, so values of variants with three or more changes are uncertain.

B1: CPEB3 Ribozyme (parent)
chain: UAACAGGGGGCCACAGCAGAAGCGUUCACGUCGCAGCCCCUGUCAGAUUCUGGUGAAUCUGCGAAUUCUGCUGUAUAUCUC

Variants of: B1
Test: self-cleavage, relative activity (ratio to wild type); higher = more cleavage; in vitro, sequencing
Method in brief: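 For each CPEB3 ribozyme variant, relative activity is its cleaved/total read fraction divided by the unmutated ribozyme's. Barcoded error-prone PCR libraries were transcribed by T7 RNA polymerase (5 hours, 37°C) and held in DNase I for 15 min before an EDTA stop, with cleavage occurring throughout. Template-switching reverse transcription and Illumina sequencing were used to read the RNAs. A 5-read minimum applied, and results are the mean of three batches.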
Work on AAGCAGGGGGCCACAGCAGAAGCGUUCAGGUCGCAGCCCCUGUCAGAUCCUGGUAAAUCUGCGAAUUCUGCCGUAUACCUC [U1A A3G C29G U49C G55A U72C U78C] yielded a self-cleavage of 0.14.
With AUACAGGGGGCCACAGCAGAAGCGUUCACGUAGCAGCCCCUGUCAGAUUCUGGUGAAUCUGCGAAUUCUGCUGUAUAUCUC [U1A A2U C32A] the self-cleavage was 0.1.
For AACCAGGGGGCCACGGCAGAAGCGUUCACGUCGCAGCCUCUGUCAGAUUCUGGUGAAUCUGCGGAUUCUGCUGCAUAUCUU [U1A A3C A15G C39U A64G U74C C81U], the self-cleavage was 0.95.
Variant AAGCAGGGGGCCACAGCAGAAGCGUUCGCGUCGCAGCCCCUGUCAGAUUCUGGUGAAUCUGCGAAUUCUGCUGUAUAUCUC [U1A A3G A28G] has a self-cleavage of 0.98.
AGACAUGGGGCCACAGCCGAAGCGUUCACGUCGCAGCCCCUGUCAGAUUCUGGCGAAUCUGCGAGUUCUGCUGUAUAUCUC [U1A A2G G6U A18C U54C A65G] showed a self-cleavage of 0.24.
Variant AGACAGGGGGCCACAGCAGAGGCGUUCACGUCGUAGCCCCUGUCAGACUCUGGUGAAUCUGCGAAUUCUGCUGUAUAUCUC [U1A A2G A21G C34U U48C] has a self-cleavage of 0.11.
With AACCAGGGGGCCACUGCAGAAGCGUUCACAUCGCAGCCCCUGCCAGAUUCUGGUGAAUCUGCGAAUUCUGCUGUAUAUCCC [U1A A3C A15U G30A U43C U80C] the self-cleavage was 0.06.
For AACCAGGGGGCCACAGCAGAAGCGUCCACGUCGCAGCCCCUGUCAGAUUCUGGUGAAUCUGCGAAUUCUGCUGUAUAUCUC [U1A A3C U26C], the self-cleavage was 0.97.
In the case of AGACAGGGGGCCGCAGCAGAAGUGUUCACGUCGCAGCCCCUGUCAGAUUCUGGUGAAUCUGCGAAUUCUGCUGUAUAUCUC [U1A A2G A13G C23U], the self-cleavage is reported as 0.09.
ACACAGGGGGCCACAGCAGAAGCGUUCACGUCGCAGCCCCUGUCAGAUUCUGGUGAAUCUGCGAAUCCUGCUGUAUAUCUC [U1A A2C U67C] showed a self-cleavage of 0.26.
AACCAGGGGGCCACAGCAGUGGCGUUCACGUCGCAGCUCCUGUCAGAAUCUGGUGAAUCUGCGAAUUCUGCCGUAUAUCUC [U1A A3C A20U A21G C38U U48A U72C] gave a self-cleavage of 0.07.
Variant AGACAGGAGGCCACGGCAGAAGCGUUCACGUCGCAGCCCCUAUCAGAUCCUGGUGAAUCUGCGAAUUCUGCUGUAUAUCUC [U1A A2G G8A A15G G42A U49C] has a self-cleavage of 0.05.
AAGCAGGGGGCCACAGCAGAAGCGUUCACGUCGCAGCCCCUGUCAGAUUCUGGUGAAUCUGCGAAUUCUGCUGUGUAUCUC [U1A A3G A75G] gave a self-cleavage of 0.92.
Work on ACACAGGGGGCCACAGCAGAAGCGUUCUCGCCGCAGCCCCUGUCGGAUUCUGGUGAAUCUGCGAAUUCUGCUGUAUAUCUC [U1A A2C A28U U31C A45G] yielded a self-cleavage of 0.82.
For AUACAGGGGGCCACAGCAGAAGCGAUCGCGUCGCGACCCCUGUCAGAUUCUGGUGAAUCUGCGAAUUCUGCUGUAUAUCUC [U1A A2U U25A A28G A35G G36A], the self-cleavage was 0.22.
Work on ACACAGGGGGCCACAGCAGAAGCGUUCACGUCGCAGCCCCCGUCAGGUUCUGGUGAAUCUGCGAAUUCUGCUGUAUAUCUC [U1A A2C U41C A47G] yielded a self-cleavage of 0.93.
Work on AACCAGGGGGCCACAGCAGAAGCGUUCACGUCGCAGCCCCUGUCAGAUUCUGGUGAAUCUGCGAAUUCUGCUGUACAUCUC [U1A A3C U76C] yielded a self-cleavage of 1.15.
In the case of AGGCAGGGGGCCACAGCAGAAGCGUUCACGUCGCAGCCCCUGUCAGAUUCUGGUGAAUCAGCAAAUUCUGCUGUAUAUCUC [U1A A2G A3G U60A G63A], the self-cleavage is reported as 0.29.
AGACAAGGGGCCACAGCAGAAGCGUUCGCGUCGCAGCCCCUGUCAGAUUCUGGUGAGUCUGCGAAUUCUGCUGUAUAUCUC [U1A A2G G6A A28G A57G] showed a self-cleavage of 0.12.
AGACAGGUGGCCACGGCAGAAGCGUUCGCGUCGCAGCCCCCGUCAGAUUCUGGUGAAUCUGCGAAUUCUGCUGUAUAUCUC [U1A A2G G8U A15G A28G U41C] gave a self-cleavage of 0.73.
Variant ACACAGGGGGCCACAGCAGAAGCGUUCACGUCGCAGCCCCUGUCAUAUUCUGGUGAAUCUGCGAAUUCUGCUGUAUAUCCC [U1A A2C G46U U80C] has a self-cleavage of 0.53.
AGACAGGGGGCCACAGCAGAAGCGUUCACGUCGCAGCCCCUGUCAGAUUCUGGUGAAUCUGUGAAUUCUGCUGUAUAUCUC [U1A A2G C62U] gave a self-cleavage of 0.39.
Variant AGACAGGGGGCCACAGCAGAAGCGUUCACGUCGCAGCCCCUGUUAGAUUCUGGAGAAUCUGCGAAUUCUGCUGUAUAUCUC [U1A A2G C44U U54A] has a self-cleavage of 0.6.
For AAGCGGGGGGCCACAGCAGAAGUGUUCACGUCGCAGCCCCUGCCAGAUUCUGGUGAAUCUGCGAAAUCUGCUGUAUAUCUC [U1A A3G A5G C23U U43C U66A], the self-cleavage was 0.3.
For AACCAGGGGGCCACAGCAGAAGCGUUCACGACGCAGCCCCCGUCGGAUUCUGGUGAAUCUGCGAAUUCUGCCGUAUAUCUC [U1A A3C U31A U41C A45G U72C], the self-cleavage was 0.68.
AACCCGGGGGCCACAGCAGACGCGCUCACGUCGCAGCCCCUGUCAGAUUCUGGUGAAUCCGCGAAUUCUGCUGUAUAUCUC [U1A A3C A5C A21C U25C U60C] showed a self-cleavage of 0.47.
Work on AGACAGUGGGCCACAGCAGAAGCGUUCACGUCGCAGCUCCUGUCAGAUUCUGGUGGAUCUGCGAAUUCUGCAGUAUAUCUC [U1A A2G G7U C38U A56G U72A] yielded a self-cleavage of 0.07.
AUACAGGGGGCCUCAGCAGAAGCGUUCACGUCGCAGCCCCUGUCAGAUCCUGGUGAAUCUGCGAAUUCUGCCGUAUUUCUC [U1A A2U A13U U49C U72C A77U] gave a self-cleavage of 0.46.
AAGCAGGGGGCCACAGCAGAAGCGUUCACGUCGCAGCCCCUGUCGGAUUCAGGUGAAUCUGCGAAUUCUACUGUAUACCUC [U1A A3G A45G U51A G70A U78C] gave a self-cleavage of 0.39.
In the case of AACCAGGGGGCCACAGCAGAAGCGCUCACGCCGCGGCCCCUGCCAGAUUCUGGUGAAUCUGUGAAUUCUGCUGUAUAUCUC [U1A A3C U25C U31C A35G U43C C62U], the self-cleavage is reported as 0.46.
Variant AGACAGGGGGCCACAGCAGAAGCGUUCACGUCGCAGCCCCUGUCAGAUUCUGGUGAACCUGCGAAUUCUGCUGUAUAUCUC [U1A A2G U58C] has a self-cleavage of 0.21.
With AUACAGGGGGCCACAGCAGGAGCGUUCACGACGCUGCCUCUGUCGGAUUCUGGUGAAUCUGCGAAUUCUGCUGUAUAUCUC [U1A A2U A20G U31A A35U C39U A45G] the self-cleavage was 0.04.
Variant AGACAGGGGGGCACAGCGGAAGCGUUCACGUCGCAGCCCCUGAAAGAUUCUGGUGAAUCUGCGAAUUCUGCUGCAUAUCUC [U1A A2G C11G A18G U43A C44A U74C] has a self-cleavage of 0.14.
AGACAGGGGGCCACAGCAGAAGCGUUCACGUCGCAGCCCCUGGCAGACCCUGGUGAAUCUGCGAAUUCUGCUGUAUAUCUC [U1A A2G U43G U48C U49C] showed a self-cleavage of 0.
